# Data published in PMC4336329 (PLoS ONE, 2015).
# The whole screen tested about 310,000 compounds, of which about 2,200 (0.71%) showed an effect of 50% or more. Effects have a minus sign here. The list shows a part of the results.
# Molecular target: human ether-à-go-go-related gene (hERG) potassium channel (human, UniProt Q12809)
# Assay: primary screen, population patch clamp on CHO cells stably expressing hERG
# Chain of human ether-à-go-go-related gene (hERG) potassium channel (Q12809 whole entry, looked up): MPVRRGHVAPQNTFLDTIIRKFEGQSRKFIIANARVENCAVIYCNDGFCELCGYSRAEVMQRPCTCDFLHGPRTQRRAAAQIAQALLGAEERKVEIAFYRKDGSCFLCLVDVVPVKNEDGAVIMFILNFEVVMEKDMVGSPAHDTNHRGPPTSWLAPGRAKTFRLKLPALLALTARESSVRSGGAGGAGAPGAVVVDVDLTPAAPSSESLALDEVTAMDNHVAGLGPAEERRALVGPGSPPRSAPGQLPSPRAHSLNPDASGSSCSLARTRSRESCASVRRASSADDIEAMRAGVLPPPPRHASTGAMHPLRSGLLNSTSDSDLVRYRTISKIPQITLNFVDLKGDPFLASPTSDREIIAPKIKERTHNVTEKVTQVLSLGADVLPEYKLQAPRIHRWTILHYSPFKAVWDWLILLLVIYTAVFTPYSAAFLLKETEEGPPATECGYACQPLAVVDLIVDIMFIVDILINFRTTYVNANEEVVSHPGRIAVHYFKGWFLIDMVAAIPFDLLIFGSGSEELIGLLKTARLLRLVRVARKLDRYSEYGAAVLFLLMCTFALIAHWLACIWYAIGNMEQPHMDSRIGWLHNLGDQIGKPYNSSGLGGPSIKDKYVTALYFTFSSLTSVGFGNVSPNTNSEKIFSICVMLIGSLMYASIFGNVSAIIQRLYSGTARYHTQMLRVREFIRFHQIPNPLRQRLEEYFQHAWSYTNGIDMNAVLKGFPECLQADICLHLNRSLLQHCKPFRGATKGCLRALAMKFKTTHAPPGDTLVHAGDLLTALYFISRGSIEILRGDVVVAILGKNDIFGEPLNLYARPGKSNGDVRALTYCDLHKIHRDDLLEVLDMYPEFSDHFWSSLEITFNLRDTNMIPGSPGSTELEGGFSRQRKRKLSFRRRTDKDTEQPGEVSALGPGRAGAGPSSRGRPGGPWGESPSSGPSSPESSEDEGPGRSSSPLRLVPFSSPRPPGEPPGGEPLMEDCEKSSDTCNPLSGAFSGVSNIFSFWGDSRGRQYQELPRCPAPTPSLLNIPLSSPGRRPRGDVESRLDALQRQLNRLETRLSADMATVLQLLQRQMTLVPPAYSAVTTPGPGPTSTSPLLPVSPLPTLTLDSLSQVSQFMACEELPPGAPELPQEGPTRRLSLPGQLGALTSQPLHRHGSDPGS
row,Structure (SMILES),"hERG current change (%, negative = inhibition) at 1uM [%]"
1,CCCCSc1nn[nH]n1,10.1
2,C[C@H]1C(=O)N(C)CCN1C(=O)c1ccccc1OC1CCN(S(C)(=O)=O)CC1,8.87
3,COc1cccc(C2CC(c3cccs3)=NN2C(=O)CSC2=NCCS2)c1OC (stereo not drawn),-2.75
4,O=C(c1ccc(F)cc1)N1CCN(S(=O)(=O)c2ccc(Br)cc2)CC1,6.38
5,COc1ccc(NC(=O)c2ccc3c(=O)n4c(nc3c2)CCCCC4)cc1,-1.91
6,Cc1ccc(SCC(=O)O/N=C(\N)c2cccnc2)cc1,5.43
7,Cc1ccc(OC(=O)c2cccc(S(=O)(=O)N(C)C)c2)c(-n2nc3ccccc3n2)c1,4.39
8,C=C[C@@H]1c2ccccc2N(S(=O)(=O)c2ccc(C)cc2)[C@H](c2ccc(OC(C)=O)cc2)C1(C#N)C#N,20.1
9,CC1(NC(=S)Nc2ccc(NC(=S)NC3(C)CCS(=O)(=O)C3)cc2)CCS(=O)(=O)C1 (stereo not drawn),8.16
10,O=C(COc1ccccc1F)NC1CC1,4.15
11,Cc1c(Br)ccc(NC(=O)c2ccccc2[N+](=O)[O-])c1C,11.2
12,O=C(c1nc2ncccn2n1)N1CCc2ccccc2C1,0.39
13,COCc1nnc(NS(=O)(=O)c2ccc(C)cc2)s1,19.6
14,CCOC(=O)N1CCN(Cc2cc(=O)oc3ccc4ccccc4c23)CC1,13.8
15,CCn1c(N2CCN(S(=O)(=O)c3ccc(F)cc3)CC2)nc2ccccc21,-11.7
16,Cc1ccc(C2C=C(c3ccccc3)Nc3ncnn32)cc1 (stereo not drawn),-9.4
17,COc1ccc(NC(=O)CC2C(=O)N(CCc3ccccc3)C(=S)N2Cc2cccnc2)cc1 (stereo not drawn),-8.7
18,CN=C(Nc1ccc(C(=O)OC)s1)c1ccccc1,3
19,O=C1/C(=C/c2ccccc2Cl)SC(=S)N1CCC(=O)N1CCCCC1CCO (stereo not drawn),4.17
20,COc1cc(/C=C(\C#N)C(=O)Nc2ccccn2)ccc1O,10.7
21,Cc1ccc(S(=O)(=O)N2CCN(C(=O)CSc3nc4ccccc4c(=O)[nH]3)CC2)c(C)c1,11.6
22,CCCn1nc2cc(C(=O)NCc3ccc(C)cc3)ccc2c1OC,5.99
23,O=C1CCN(Cc2nnnn2CC2CCCO2)c2ccccc2N1 (stereo not drawn),8.7
24,COC(=O)c1cc(OC)c(OC)cc1NC(=O)CSc1nnnn1Cc1ccccc1,6.4
